# Laboratory results published in PubChem BioAssay (Tox21).
# Several values for one entry are separate records, joined by “and”; a condition that tells them apart may be missing. Identical values can stand only once. The shares of active, inactive and inconclusive entries below differ from those in the screen. For some assays here: A potency beside an inconclusive call is a rough fit, not a confirmed value. The source holds several records for some structures; these can differ, active in one and inactive in another. Activity calls are given as the source filed them. Unless noted, calls follow the shape of the dose curve; as a rule, active = well fitted curve in the direction sought with a large enough effect in the repeat runs; inconclusive = weak or mixed curves; inactive = no such curve, though single readings can be large; an effect the other way counts as inactive or inconclusive.
# How the values were obtained:
# [1] = qHTS assay to identify small molecule agonists of the estrogen receptor alpha (ER-alpha) signaling pathway in the presence of an antagonist - cell viability counter screen (AID 1259386); settings: VM7Luc4E2 viability, CellTiter-Fluor fluorescence, 22 h; series mostly up to 92.4 µM;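 also: cells exposed to compounds for 22 h at 37 °C before the viability read; nearly all actives have a fitted effect of over 30% in size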
# Procedure, shortened: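 Viability counter screen using VM7Luc4E2 (full-length ER-alpha, four ERE-luciferase). The cells were treated with compounds alongside ICI-182,780 10.0nM for 22hr, and live-cell protease fluorescence was quantified with CellTiter-Fluor.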
# [2] = qHTS assay to identify small molecule antagonists of the progesterone receptor (PR) signaling pathway - cell viability counter screen (AID 1346798); settings: PR-UAS-bla HEK293T viability, CellTiter-Glo luminescence, 16 h; series mostly up to 92.4 µM; also: nearly all actives have a fitted effect of over 50% in size
# Procedure, shortened: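 Viability was determined by ATP-based luminescence (CellTiter-Glo) in PR-UAS-bla HEK293T cells cultured in 2% charcoal-stripped serum and incubated 16 hr with compounds under R5020 stimulation.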
# [3] = qHTS assay to identify small molecule agonists of the progesterone receptor (PR) signaling pathway - cell viability counter screen (AID 1346799; calls by dose curve; also: nearly all actives have a fitted effect of over 45% in size); settings: PR-UAS-bla HEK293T viability, CellTiter-Glo luminescence, 16 h; series mostly up to 92.4 µM
# Procedure, shortened: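 Viability was scored by ATP luminescence (CellTiter-Glo, 30 min, room temperature) in the same wells used for the reporter readout, after 16 hr compound exposure of PR-UAS-bla HEK293T cells.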
# [4] = qHTS assay to identify small molecule agonists of the TGF-beta/Smad signaling pathway (AID 1346859; active = well fitted activation curve with a large enough effect in the signal ratio in the repeat runs, not every such curve was filed as active; inconclusive = weak or mixed curves; the % refers to the signal ratio; as to activation: % is scaled to controls: 0 for no effect and ±100 for the full control effect); settings: SBE-bla HEK293T, TGF-beta/Smad beta-lactamase reporter, 5 h; activation: at 76.8 µM (top of the series) unless noted
# Procedure, shortened: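 Dual-wavelength fluorescence (460/530 nm emission) quantified beta-lactamase expression under the Smad binding element in HEK 293T cells following 5 hr compound treatment at 37 C.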
# [5] = target: Progesterone receptor (Homo sapiens) (UniProt P06401); test: qHTS assay to identify small molecule agonists of the progesterone receptor (PR) signaling pathway (AID 1346784; calls by dose curve; also: nearly all actives have a fitted effect of over 30% in size; as to activation: % is scaled to controls: 0 for no effect and ±100 for the full control effect); settings: PR-UAS-bla HEK293T, beta-lactamase FRET ratio, 16 h; activation: at 92.4 µM (top of the series) unless noted
# Procedure, shortened: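 The screen uses PR-UAS-bla HEK 293T cells in charcoal-stripped serum (2%). Compounds are applied for 16 hr at 37C after a 6 hr pre-incubation, and reporter activity is detected with a FRET beta-lactamase substrate after 2 hr at room temperature.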
# [6] = target: Progesterone receptor (Homo sapiens) (UniProt P06401); test: qHTS assay to identify small molecule antagonists of the progesterone receptor (PR) signaling pathway (AID 1346795; active = well fitted inhibition curve with a large enough effect in the signal ratio in the repeat runs, not every such curve was filed as active; inconclusive = weak or mixed curves; the % refers to the signal ratio; as to activity change, negative = inhibition: % is scaled to controls: 0 for no effect and ±100 for the full control effect); settings: PR-UAS-bla HEK293T, beta-lactamase FRET ratio, 16 h; activity change, negative = inhibition: at 92.4 µM (top of the series) unless noted
# Procedure, shortened: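 After 6 hr plating at 37C in 2% stripped-serum medium, PR-UAS-bla HEK293T cells got compounds, then 1 nM R5020. Sixteen hours later, LiveBLAzer substrate was applied for 2 hr at room temperature and fluorescence was recorded.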
# [7] = qHTS assay to identify small molecule antagonists of the TGF-beta/Smad signaling pathway - cell viability counter screen (AID 1346824); settings: SBE-bla HEK293T viability, CellTiter-Glo luminescence; series mostly up to 76.8 µM; also: nearly all actives have a fitted effect of over 50% in size
# Procedure, shortened: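 Cytotoxicity counter-screen run in the same wells as the beta-lactamase Smad reporter read: CellTiter-Glo luminescence after 30 min at room temperature. HEK 293T SBE-bla cells had 5 hr compound exposure at 37 C with TGF-beta1 (0.25 ng/mL stock).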
# [8] = qHTS assay to identify small molecule agonists of the TGF-beta/Smad signaling pathway - cell viability counter screen (AID 1346829); settings: SBE-bla HEK293T viability, CellTiter-Glo luminescence, 5 h; series mostly up to 76.8 µM; also: nearly all actives have a fitted effect of over 45% in size
# Procedure, shortened: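 CellTiter-Glo luminescence readout; SBE-bla HEK 293T cells, overnight plating, compound 5 hr at 37 C/5% CO2, then bla substrate 2 hr RT, then CellTiter-Glo 30 min RT.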
# [9] = target: Thyrotropin-releasing hormone receptor (Homo sapiens) (UniProt P34981); test: qHTS assay to identify small molecule antagonists of the thyrotropin-releasing hormone receptor (TRHR) signaling pathway (AID 1346877; active = well fitted inhibition curve with a large enough effect in the repeat runs, not every such curve was filed as active; inconclusive = weak or mixed curves); settings: TRHR-HEK293, TRH-induced calcium fluorescence, antagonist mode; series mostly up to 51.3 µM
# Procedure, shortened: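 Following an 18 h incubation at 37 °C and a 2 h calcium dye load, TRHR-HEK293 cells were exposed to compound (5 min, room temperature) and challenged with TRH, 1 nM final.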
# Potency is read from the fitted curve at half-maximal effect; tags tell the direction and shape of the fitted curve or compound fluorescence and quenching.
# Sequence of UniProt P34981 (P34981 whole entry, looked up): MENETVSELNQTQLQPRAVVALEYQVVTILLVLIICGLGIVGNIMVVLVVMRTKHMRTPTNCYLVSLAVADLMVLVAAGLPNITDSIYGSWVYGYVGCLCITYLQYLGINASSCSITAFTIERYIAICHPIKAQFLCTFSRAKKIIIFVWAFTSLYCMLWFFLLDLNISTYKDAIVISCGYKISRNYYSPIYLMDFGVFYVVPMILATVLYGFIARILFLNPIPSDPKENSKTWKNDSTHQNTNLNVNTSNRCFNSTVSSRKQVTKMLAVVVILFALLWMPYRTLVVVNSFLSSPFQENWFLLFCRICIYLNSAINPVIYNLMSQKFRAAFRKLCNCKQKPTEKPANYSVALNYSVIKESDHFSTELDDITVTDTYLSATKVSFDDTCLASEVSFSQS
# Sequence of UniProt P06401 (P06401 whole entry, looked up): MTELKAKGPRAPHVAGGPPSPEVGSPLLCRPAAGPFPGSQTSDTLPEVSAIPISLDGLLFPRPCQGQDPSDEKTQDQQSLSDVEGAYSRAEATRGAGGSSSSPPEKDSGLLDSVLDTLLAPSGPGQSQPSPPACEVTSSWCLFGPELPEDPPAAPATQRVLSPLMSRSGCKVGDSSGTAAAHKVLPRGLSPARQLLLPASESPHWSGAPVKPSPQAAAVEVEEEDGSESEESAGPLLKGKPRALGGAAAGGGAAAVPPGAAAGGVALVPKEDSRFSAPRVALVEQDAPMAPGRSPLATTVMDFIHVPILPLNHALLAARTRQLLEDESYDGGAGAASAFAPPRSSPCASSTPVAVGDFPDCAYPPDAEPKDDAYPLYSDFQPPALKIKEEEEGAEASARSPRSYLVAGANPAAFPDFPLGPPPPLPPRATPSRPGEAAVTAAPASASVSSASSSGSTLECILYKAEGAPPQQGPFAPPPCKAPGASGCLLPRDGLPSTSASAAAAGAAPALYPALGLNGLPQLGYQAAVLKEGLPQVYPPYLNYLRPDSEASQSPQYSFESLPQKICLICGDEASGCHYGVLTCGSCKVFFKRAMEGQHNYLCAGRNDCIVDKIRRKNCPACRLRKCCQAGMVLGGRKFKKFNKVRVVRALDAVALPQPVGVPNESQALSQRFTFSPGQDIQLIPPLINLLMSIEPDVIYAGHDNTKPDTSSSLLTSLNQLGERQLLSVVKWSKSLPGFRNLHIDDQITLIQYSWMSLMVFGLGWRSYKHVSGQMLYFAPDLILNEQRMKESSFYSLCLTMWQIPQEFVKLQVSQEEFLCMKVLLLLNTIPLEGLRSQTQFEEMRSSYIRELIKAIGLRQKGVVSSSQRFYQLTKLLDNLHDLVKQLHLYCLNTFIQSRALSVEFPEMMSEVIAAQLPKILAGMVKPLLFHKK
structure (smiles),measurement,setting,value
Cc1[nH]c(=O)c(C#N)cc1-c1ccncc1,Potency,[1],"inconclusive: 9.69 µM [cytotoxic, partial curve]"
same,Potency,[2],"inconclusive: 15.4 µM [cytotoxic, single point]"
same,Potency,[3],active: 2.73 µM
same,Potency,[4],inconclusive: 21.9 µM and inactive
CCCCCCCC/C=C\CCCCCCCC(N)=O,Potency,[5],inactive
same,Potency,[6],"inconclusive: 27.3 µM [falling, single point]"
same,Potency,[2],"inconclusive: 68.5 µM [rising, single point]"
CC(=O)Oc1ccccc1C(=O)Nc1ncc([N+](=O)[O-])s1,activation,[5],inconclusive: -19.3%
same,Potency,[6],inconclusive: 27.9 µM
same,"activity change, negative = inhibition",[6],inconclusive: -33.1% [at 42.5 µM]
same,Potency,[7],active: 14.1 µM and active: 8.49 µM
same,Potency,[8],"active: 11.2 µM and inconclusive: 12 µM [cytotoxic, partial curve]"
C=CC(C)(CCC=C(C)C)OC(=O)C(C)C (stereo not given),Potency,[5],inactive
CN(C)c1ccc(C(=C2C=CC(=[N+](C)C)C=C2)c2ccc(N(C)C)cc2)cc1,Potency,[5],"inconclusive: 15.3 µM [cytotoxic, partial curve] and inconclusive: 15 µM [cytotoxic, partial curve]"
same,activation,[5],inconclusive: -5.05%
same,Potency,[2],active: 24.2 µM and active: 30.6 µM and active: 21.1 µM
same,Potency,[3],active: 27.2 µM and inconclusive: 48.6 µM [cytotoxic] and active: 21.1 µM
same,Potency,[7],active: 19.4 µM and active: 43.6 µM and active: 19 µM
same,Potency,[4],"inconclusive: 48.7 µM [rising, partial curve] and inconclusive: 54.9 µM [rising, partial curve] and inconclusive: 23.9 µM [rising, partial curve]"
same,Potency,[9],"inconclusive: 5.99 µM [inhibitor, full curve] and inconclusive: 9.53 µM [inhibitor, partial curve] and inconclusive: 6.58 µM [inhibitor, partial curve]"
